{"source": "PubChem BioAssay AID1466", "about": "(National Center for Advancing Translational Sciences (NCATS), 2008)", "note": "In all, about 200,000 compounds went through this assay and about 10 (0.005%) were called active. The shares of active, inactive and inconclusive entries below differ from those in the screen. Calls follow the shape of the dose curve; as a rule, active = well fitted inhibition curve with a large enough effect; inconclusive = small, poorly fitted or top-dose-only effect, or effect the other way, or another doubt; inactive = no such curve, though single readings can be large or run the other way. Potencies of inconclusive entries are left out as doubtful fits."}
{"target": "Lysosomal alpha-glucosidase (Homo sapiens) (UniProt P10253)", "assay": "qHTS Assay for Inhibitors of Human alpha-Glucosidase as a Potential Chaperone Treatment of Pompe Disease; also: potency is read from the fitted curve at half-maximal effect; tags tell the direction and shape of the fitted curve;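 as to activity change, negative = inhibition: plate controls were uninhibited enzyme wells for no effect and no-enzyme background for full effect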", "conditions": "purified human GAA, 4-MU-alpha-glucoside fluorescence; activity change, negative = inhibition: at 76.9 µM (top of the series) unless noted", "summary_of_the_method": "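Fluorescence at Ex 365/Em 440 nm from 4-methylumbelliferone reported enzyme activity after 20 min at room temperature. Reactions used 4 nM enzyme and 400 uM substrate at pH 5.0; curves fitted with the Hill equation.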"}
{"molecule": "O=C(C(Sc1ccccc1)c1ccccc1)N1CCN(c2ccccc2)CC1", "note": "(configuration not stated)", "Potency": "inconclusive [inhibitor, single point]"}
{"molecule": "Clc1cccc(-c2cc3nc4c(c(NCc5ccco5)n3n2)CCCC4)c1", "activity change, negative = inhibition": "inconclusive: -15.2% [inhibitor]"}
{"molecule": "O=C(COc1ccc(Br)cc1)N1CCc2ccccc2C1", "Potency": "inconclusive [inhibitor, partial curve]"}
{"molecule": "COC(=O)c1ccc(O)c(Sc2cc(C(=O)OC)ccc2O)c1", "activity change, negative = inhibition": "inactive: -6.6%"}
{"molecule": "Cc1c(NC(=O)c2cc(-c3cccs3)nc3ccccc23)c(=O)n(-c2ccccc2)n1C", "Potency": "inconclusive [inhibitor, single point]"}
{"molecule": "Cc1cc2oc(C(=O)NCc3ccncc3)c(C)c2cc1C", "activity change, negative = inhibition": "inconclusive: -16.8% [inhibitor]"}
{"molecule": "CN(Cc1nc(Cc2ccccc2F)no1)[C@@H]1CS(=O)(=O)C[C@H]1O", "Potency": "inconclusive [inhibitor, single point]"}
{"molecule": "COC(=O)Cc1c(C)c2ccc(O)c(CN3CCCC(C)C3)c2oc1=O", "note": "(configuration not stated)", "Potency": "inconclusive [activator, partial curve]"}
{"molecule": "COc1ccc(NC(=O)Nc2ccccc2SC)cc1", "activity change, negative = inhibition": "inactive: -8.62%"}
{"molecule": "O=C(O)/C=C/c1ccc(S(=O)(=O)N(CCO)CCO)cc1", "Potency": "inconclusive [inhibitor, partial curve]"}
{"molecule": "Fc1ccc(NCc2cn3ccccc3n2)cc1", "activity change, negative = inhibition": "inactive: -3.01%"}
{"molecule": "O=C(O)/C=C/C(=O)N1CCN(c2ccccc2F)CC1", "Potency": "inconclusive [inhibitor, single point]"}
{"molecule": "Cc1cc(C)c2nc(-c3ccco3)cc(C(=O)O)c2c1", "Potency": "inconclusive [activator, partial curve]"}
{"molecule": "COc1ccc(-n2ncc3c(=O)n(Cc4c(F)cccc4Cl)cnc32)cc1", "Potency": "inconclusive [inhibitor, single point]"}
{"molecule": "O=C(CCNS(=O)(=O)c1cccc2nsnc12)NCc1cccs1", "activity change, negative = inhibition": "inconclusive: -16.3% [inhibitor]"}
{"molecule": "Cc1ccc(S(=O)(=O)N/N=C/c2cccn2-c2ccc(Cl)cc2)cc1", "Potency": "inconclusive [inhibitor, partial curve, poor fit]"}
{"molecule": "Cc1onc(-c2c(F)cccc2Cl)c1C(=O)OCC(=O)NC(c1ccccc1)c1ccccc1", "Potency": "inconclusive [inhibitor, partial curve, poor fit]"}
{"molecule": "CCOC(=O)c1sc2cc([N+](=O)[O-])cc(SCC(=O)OC)c2c1N", "Potency": "inconclusive [inhibitor, single point]"}
{"molecule": "CC(=O)C1=C(O)C(=O)N(C)C1c1ccccc1F", "note": "(configuration not stated)", "Potency": "inconclusive [inhibitor, single point]"}
{"molecule": "Cc1ccc(S(=O)(=O)Nc2cc(C(=O)N3CCOCC3)ccc2N2CCCCC2)cc1", "Potency": "inconclusive [activator, single point]"}
{"molecule": "CCN(CC)S(=O)(=O)c1ccc2nc(CSc3nnnn3-c3ccc(O)cc3)[nH]c2c1", "Potency": "inconclusive [inhibitor, single point]"}
{"molecule": "COC(=O)c1cc(NC2c3ncccc3C(=O)N2Cc2ccccc2)cc(C(=O)OC)c1", "note": "(configuration not stated)", "Potency": "inconclusive [inhibitor, partial curve, poor fit]"}
{"molecule": "COc1ccc(CN(C(=O)c2ccc(-c3ccccc3)[nH]2)C(C(=O)NC(C)(C)C)c2ccncc2)cc1", "note": "(configuration not stated)", "Potency": "inconclusive [inhibitor, partial curve]"}
{"molecule": "O=C(NCc1ccco1)c1cccc(S(=O)(=O)N2CCOCC2)c1", "Potency": "inconclusive [inhibitor, single point]"}
{"molecule": "Cn1cnc2c(N3CCCCC3)nccc21", "Potency": "inconclusive [activator, partial curve]"}
{"molecule": "CCn1c(SCC(=O)c2ccccc2)nnc1-c1cccs1", "Potency": "inconclusive [inhibitor, single point]"}
{"molecule": "COc1ccc(S(=O)(=O)NCc2cn3c(C)csc3n2)cc1F", "Potency": "inconclusive [activator, full curve]"}
{"molecule": "COCCn1c(=O)[nH]c(=O)c2c(C(F)(F)F)cc(-c3cccs3)nc21", "Potency": "inconclusive [activator, partial curve]"}
{"molecule": "CCCn1c(O)c(C=Nc2ccccc2)sc1=S", "Potency": "inconclusive [inhibitor, single point]"}
{"molecule": "Cc1ccc(NC(=O)C2CCN(S(=O)(=O)c3cccs3)CC2)cc1C", "Potency": "inconclusive [inhibitor, single point]"}
{"molecule": "CCCc1nc2sc(C(=O)OCC)c(N)c2c2c1COC(C)(C)C2", "Potency": "inconclusive [activator, single point]"}
{"molecule": "CCOc1ccc2cc(C#N)c(SCC(=O)N3CCC(C)CC3)nc2c1", "Potency": "inconclusive [inhibitor, single point]"}
{"molecule": "Cc1ccc(O)c(NC(=O)c2ccco2)c1", "activity change, negative = inhibition": "inactive: -1.69%"}
{"molecule": "Cn1c(CCCOc2ccc(Cl)cc2Cl)nnc1SCC(=O)Nc1nccs1", "Potency": "inconclusive [inhibitor, partial curve, poor fit]"}
{"molecule": "OCCN(Cc1ccccc1)C(=S)Nc1ccc(F)cc1", "Potency": "inconclusive [inhibitor, single point]"}
{"molecule": "Cc1cccc(C)c1N=Cc1c(O)n(-c2nccs2)c(=O)c2ccccc12", "activity change, negative = inhibition": "inconclusive: 15.9% [activator]"}
{"molecule": "CCSc1nc(N2CCOCC2)c2c(c1C#N)CC(C)(C)N(C)C2", "Potency": "inconclusive [inhibitor, single point]"}
{"molecule": "S=c1[nH]nc(COc2ccc3ccccc3c2)o1", "Potency": "inconclusive [inhibitor, full curve]"}
{"molecule": "O=C(/C=C/c1ccco1)N1CCCC(c2ccccc2)C1", "note": "(configuration not stated)", "activity change, negative = inhibition": "inconclusive: 19.6% [activator]"}
{"molecule": "CC(=O)c1cccc(NC(=O)C2CCCN(S(=O)(=O)c3ccc(F)cc3)C2)c1", "note": "(configuration not stated)", "Potency": "inconclusive [inhibitor, single point]"}
{"molecule": "CC1(C)CC(=O)c2cc(OCC(=O)NCCN3CCOCC3)ccc2O1", "Potency": "inconclusive [activator, single point]"}
{"molecule": "COc1ccccc1Nc1nc2ccc(C)cc2cc1C#N", "Potency": "inconclusive [inhibitor, single point]"}
